Assay results reported in PMC12136788.
Some of the results follow.

B1: ENSG00000070961:be:win_301|CDS|ENSG00000070961|bound_else_gene|NA|bound_elsewhere_windowed (ssRNA)
RNA: GGGAGUUCUACAGUCCGACGAUCUUAGUAUGGGAAGCAUUACAAGAUGUCACUUUAAUUAUAUUAGAAAUUGCAGCCAUAGUAUCAUUGGGCCUUUCUUUUUAUCAGCCUCCAGAAGGGGAUAAUGCACUUUGUGGAGAAGUUCAACAGAGGAUUGAGCAUCA
B2: chr7:123692404:123692516:-|CDS|ENSG00000106299|unk|total|mutant (ssRNA)
RNA: GGGAGUUCUACAGUCCGACGAUCCCUGCCUUCUGAUGGGGACCAUCAGGUUCCAACUACUGCAGGAAACAAAGCAGCUCUUUCCGAUCAAAUCCGAGAGGGUGCUCAGCUAAAAAAAGUGGAGCAGAACAGUCGGCCAGUGUCCAACAGAGGAUUGAGCAUCA
B3: chrX:21994482:21994713:+|3pUTR|ENSG00000102172|msi1|FALSE|unique (ssRNA)
RNA: GGGAGUUCUACAGUCCGACGAUCCAGCUGAAGGAUGGUUAGACAGCACAGCGAAGACUGCUAAAUGCACUGACCCCCCCCAUUAGAAUGUGAUUUUUGUUCCUUUUUAUUUCUCUGUGGGCUUUUGUUUUUGUUUUUGUUUUGCAACAGAGGAUUGAGCAUCA
B4: chr12:88196262:88196297:+|3pUTR|ENSG00000139324|msi1_unk|FALSE|overlapping (ssRNA)
RNA: GGGAGUUCUACAGUCCGACGAUCUGUAUACUUGUUUUUAACUUUAAAUGUAAUUUUUAAUCAGGUAAAGUUUGACACAUGUAUAGCUACAUACACACAUUUUUAAUGGUGCUCAUAUAUACUGUAUUUUUUGUUGUUUAGUUUCAACAGAGGAUUGAGCAUCA
B5: chr1:85021069:85021276:-|CDS|ENSG00000055732|control|control|control (ssRNA)
RNA: GGGAGUUCUACAGUCCGACGAUCGAUAUGUUUGCCACGUUUGCAAAAAUGCAGCAAAAAAGUUACUUAGUCUGGCUGUUUAGUAGAAUUUACCUCUACUCAUUCAUCAGCCUCUUUAUAUAUAUGAUUUUAAGUCUUUUCAUUCAACAGAGGAUUGAGCAUCA
B6: chr15:52755052:52757554:-|three_prime_utr|ENSG00000169856|control|control|control (ssRNA)
RNA: GGGAGUUCUACAGUCCGACGAUCAAACCUCGGUGGAAAAGCUUUAAAUUAAAAAAAAUUUUUAAAAGACCAGGACCUCAAGAUAGCAGGUUUAUACUUAGAAAUAUUUGAAGAAAAAAAAGCGUUAUUUAUAGUCCAAAGAAACAACAGAGGAUUGAGCAUCA
B7: chr19:2853326:2853433:+|CDS|ENSG00000186300|unk|FALSE|unique (ssRNA)
RNA: GGGAGUUCUACAGUCCGACGAUCCAAUGUGGGAAAACUUUCAAUUGGCCCAUAUCUUUACGAAAACAUAUGAGAACACAUACUAGAGAGAAACCCUAUGAAUGUAAGCAGUGUGGGAAAGCCUUCAGCUUGUCUGCUUGCUUUCAACAGAGGAUUGAGCAUCA
B8: chr6:152987361:152990084:-|three_prime_utr|ENSG00000112031|control|control|control (ssRNA)
RNA: GGGAGUUCUACAGUCCGACGAUCAGAUUAUCUACUGGAUGAACUUGUACAGUCAUUGAAGGAAUACGCCGAUUAUGAAUCUUUAGUAGAAAUUAUUUCCCAAAAAGUUUAAGUUGAUUUGUUAUUUAUAGACUUUCGUAGCUUCAACAGAGGAUUGAGCAUCA
B9: chr14:59746188:59746291:-|CDS|ENSG00000139970|unk|FALSE|unique (ssRNA)
RNA: GGGAGUUCUACAGUCCGACGAUCCUGGGUACACCCGGCCCCUCCUUACCAGAUGUGCCUGGGAUAGAGUCUCGUGGCUUAUUUAGUUCUGAUUCUGGAAUAGAGAUGACUCCUGCAGAGUCCACGGAAGUGAACAAGAUCUUACAACAGAGGAUUGAGCAUCA
B10: ENSG00000124766:be:win_2751|3pUTR|ENSG00000124766|bound_else_gene|NA|bound_elsewhere_windowed (ssRNA)
RNA: GGGAGUUCUACAGUCCGACGAUCUUCUCAGUGUGUGUGUUUAUUCCUUAUAGGUGUAAAUGAGAAGACGUGUUUUUUUCCUUCACCGAUGCUCCAUCCUCGUAUUUCUUUUUCCUUGUAAAUGUAAUCAGAUGCCAUUUUAUACAACAGAGGAUUGAGCAUCA
B11: chr5:128187618:128187661:+|3pUTR|ENSG00000064651|msi1_unk|total|mutant (ssRNA)
RNA: GGGAGUUCUACAGUCCGACGAUCUCCUUUAUAAGUCAUUAAAAUAAUGUUUCAUCAAAUGGUUAAAUGGACCACUGGUUUCUCCGAGAAAUGUUUUCCGGCUUAAUUCAUUCAAUUGUCAAGUACACUCCGUCUUAAUACACUCAACAGAGGAUUGAGCAUCA
B12: chr9:104535772:104536723:-|CDS|ENSG00000204246|control|control|control (ssRNA)
RNA: GGGAGUUCUACAGUCCGACGAUCGACAAGCUCAUUUCUCUGUUUUAUGGGGUAGUGACACCCAUGCUGAAUCCUAUACUCUAUAGCUUGAGAAAUAAGGAUGUAAAAGCUGCUGUAAAAUAUUUGCUGAACAAAAAACCAAUUCAACAGAGGAUUGAGCAUCA
B13: chr17:43640388:43641946:-|three_prime_utr|ENSG00000005102|control|control|control (ssRNA)
RNA: GGGAGUUCUACAGUCCGACGAUCCCUCUCCACAUCUUUCCCUGACUCUUGGAUAUGAAACUGCCCAGCAUUCCUGGGAGUCUUAGGAUUUUCUAGGAAGUUCUGUCCAGCCUCUUAGCAGCCUCUUCCCUAGGGCCUUUGCUCCAACAGAGGAUUGAGCAUCA
B14: chr17:58090057:58090109:+|3pUTR|ENSG00000264364|msi1_unk|FALSE|overlapping (ssRNA)
RNA: GGGAGUUCUACAGUCCGACGAUCGGGUAGGAUUAGCUUGAAUCUUUUUUUUCUUUACAUUUUUCUCCUGUCUGCUCCCUGCUUAGCCCUCAGUUUCCUCAUUCCUCUGGAGUUCUCUUAGAGCAGCCCCUGUUGUUAGUUGGCCAACAGAGGAUUGAGCAUCA
B15: chr5:149847740:149847841:+|3pUTR|ENSG00000155846|unk|FALSE|unique (ssRNA)
RNA: GGGAGUUCUACAGUCCGACGAUCAUUGAACAAAGCUGCUUCUGUCUGUGAGUUUCCAUGGUGUUGACGUUCCACUGCCACAUUAGUGUCCUCGCUUCCAACGGGUUGUCCCGGGUGCACCUCGAAGUGCCGGGUCCGUCACCCCAACAGAGGAUUGAGCAUCA
B16: chr1:113706032:113706133:-|CDS|ENSG00000116793|unk|FALSE|unique (ssRNA)
RNA: GGGAGUUCUACAGUCCGACGAUCCAAUGCCUAUCAGCAAGGAGUAGGUUAUCAGAUGCUGGGAAAUGUUGUCACUAUUGGAUUAGCAUUUUUUCCAUUCUUACAUCGACUUUUCCGUGAGAAGAGCCUUGACCAACUAAAGUCCAACAGAGGAUUGAGCAUCA
B17: ENSG00000051108:stop:overlap|stop_codon|ENSG00000051108|stop_codon|NA|stop_codon (ssRNA)
RNA: GGGAGUUCUACAGUCCGACGAUCAUGGGUGGCUUCAGCUUUCCUGGUUCCAGCAGAUAUAUGCACGACAGUACUACAUGCAAUAGAAGGCACUGAUCCUGAAACUGAAGACCCCAACCACCUCCCUCCAGACAGGGAUGUACUCAACAGAGGAUUGAGCAUCA
B18: ENSG00000070961:be:win_1101|CDS|ENSG00000070961|bound_else_gene|NA|bound_elsewhere_windowed (ssRNA)
RNA: GGGAGUUCUACAGUCCGACGAUCAAAACUGGCUGUUCAGAUUGGCAAAGCAGGUCUGUUGAUGUCUGCCAUCACAGUUAUCAUUCUAGUAUUAUAUUUUGUCAUUGACACCUUCUGGGUUCAGAAAAGACCAUGGCUUGCUGACAACAGAGGAUUGAGCAUCA
B19: ENSG00000070961:be:win_1501|CDS|ENSG00000070961|bound_else_gene|NA|bound_elsewhere_windowed (ssRNA)
RNA: GGGAGUUCUACAGUCCGACGAUCCCUGAACCAGAAGCUAUUCCACCAAAUAUUUUGUCCUAUCUUGUAACAGGAAUUUCUGUGAAUUGUGCUUAUACAUCAAAAAUAUUGCCACCAGAGAAAGAGGGUGGAUUACCUCGUCACCAACAGAGGAUUGAGCAUCA
B20: ENSG00000198589:be:win_4751|CDS|ENSG00000198589|bound_else_gene|NA|bound_elsewhere_windowed (ssRNA)
RNA: GGGAGUUCUACAGUCCGACGAUCGCACUUUAACUACGGCAUCAGUGGAAGAAUCUGAAAGCACAUCAUCUGCUCGAAGGAGGGACUCAGGCAUUGGGGAAGAAACAGCCACUGGUUUAGGAAGCCAUGUGGAAGUAACUCCUCCAACAGAGGAUUGAGCAUCA
B21: ENSG00000150753:stop:overlap|stop_codon|ENSG00000150753|stop_codon|NA|stop_codon (ssRNA)
RNA: GGGAGUUCUACAGUCCGACGAUCUCAGGAUGAUGAAAUUGGAGAUGGAACCACAGGAGUGGUUGUCCUGGCUGGUGCCUUGUUAGAAGAAGCGGAGCAAUUGCUAGACCGAGGCAUUCACCCAAUCAGAAUAGCCGAUGGCUACAACAGAGGAUUGAGCAUCA
B22: chr1:119916538:119916684:-|CDS|ENSG00000134250|unk|total|mutant (ssRNA)
RNA: GGGAGUUCUACAGUCCGACGAUCAGAGACACCUCUGUUUCUUGCUGCCCGGGAGGGGAGCUAUGAAGCAGCCAAGAUCCUGUCCGACCAUUUUGCCAAUCGAGACAUCACAGACCAUAUGGAUCGUCUUCCCCGGGAUGUGGCCAACAGAGGAUUGAGCAUCA

The binders below were run against T1, UNK ZnF1-6 (called full-length) (human, UniProt Q9C0B0 30-357) (assay: nsRBNS (natural sequence RNA bind-n-seq); RBNS binding buffer (assumed for nsRBNS): 25 mM Tris pH 7.5, 150 mM KCl, 3 mM MgCl2, 0.01% Triton X-100, 500 ug/ml BSA, 20 U/ml SUPERase-In, 4 C; UNK is unkempt and MSI1 is Musashi-1; names of the RNAs are library labels; protein concentration not given here; high values mean tight binding).
T1 sequence: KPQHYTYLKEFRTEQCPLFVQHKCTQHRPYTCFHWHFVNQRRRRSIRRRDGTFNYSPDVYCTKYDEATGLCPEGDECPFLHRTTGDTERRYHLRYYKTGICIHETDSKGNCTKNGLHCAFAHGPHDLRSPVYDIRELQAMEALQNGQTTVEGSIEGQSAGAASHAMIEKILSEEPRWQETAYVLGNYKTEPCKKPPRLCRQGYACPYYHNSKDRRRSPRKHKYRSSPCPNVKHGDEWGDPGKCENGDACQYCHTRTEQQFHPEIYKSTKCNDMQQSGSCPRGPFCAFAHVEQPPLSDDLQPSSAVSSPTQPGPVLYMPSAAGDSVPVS
In the case of B1, the binding signal is reported as 2.4 enrichment R.
B2 gave a binding signal of 0.493 enrichment R.
B3 was tested, and the binding signal was 2.3 enrichment R.
B4 showed a binding signal of 3.56 enrichment R.
Work on B5 yielded a binding signal of 1.95 enrichment R.
In the case of B6, the binding signal is reported as 4.65 enrichment R.
In the case of B7, the binding signal is reported as 0.336 enrichment R.
Work on B8 yielded a binding signal of 1.84 enrichment R.
With B9 the binding signal was 0.651 enrichment R.
Work on B10 yielded a binding signal of 0.717 enrichment R.
Binder B11 has a binding signal of 0.678 enrichment R.
Binder B12 has a binding signal of 0.451 enrichment R.
For B13, the binding signal was 0.973 enrichment R.
For B14, the binding signal was 4.34 enrichment R.
For B15, the binding signal was 0.845 enrichment R.
In the case of B16, the binding signal is reported as 0.479 enrichment R.
With B17 the binding signal was 0.715 enrichment R.
Work on B18 yielded a binding signal of 5.64 enrichment R.
With B19 the binding signal was 0.435 enrichment R.
With B20 the binding signal was 0.511 enrichment R.
For B21, the binding signal was 1.35 enrichment R.
Work on B22 yielded a binding signal of 0.755 enrichment R.
